PubChem BioAssay AID1468 (National Center for Advancing Translational Sciences (NCATS), 2008)
Where “and” joins values, the source holds several entries; their conditions need not be identical. Equal values may be shown once. In all, about 280,000 compounds went through this assay and about 1,100 (0.39%) were called active. Inconclusive results, whose numbers are uncertain, are shown with a selection of clear calls. Calls come from the whole dose curve; as a rule, active = well fitted inhibition curve with a large enough effect; inconclusive = small, poorly fitted or top-dose-only effect, or effect the other way; inactive = flat fitted curve, though single readings scatter. Potencies beside an inconclusive call are fits to weak or partial responses and may not hold up.

Biological target: Microtubule-associated protein tau (Homo sapiens) (UniProt P10636)
Test: qHTS for Inhibitors of Tau Fibril Formation, Fluorescence Polarization; note: nearly all actives have a fitted effect of over 55% in size
Conditions: K18 P301L tau heparin fibrillization, Alexa594 FP, 6 h; series mostly up to 57.7 µM
Method in brief: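 Human K18 P301L fragment (15 uM unlabeled plus 0.24 uM Alexa 594-labeled) in 100 mM sodium acetate pH 7 with compound, aggregation induced by 20 uM heparin for 6 hr at 37 C. ThT (30 uM) added for 1 hr, then Alexa 594 FP read.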
Potency is the fitted concentration of half-maximal effect; tags give direction and shape of the fitted curve.

Chain of UniProt P10636 (P10636 whole entry, looked up): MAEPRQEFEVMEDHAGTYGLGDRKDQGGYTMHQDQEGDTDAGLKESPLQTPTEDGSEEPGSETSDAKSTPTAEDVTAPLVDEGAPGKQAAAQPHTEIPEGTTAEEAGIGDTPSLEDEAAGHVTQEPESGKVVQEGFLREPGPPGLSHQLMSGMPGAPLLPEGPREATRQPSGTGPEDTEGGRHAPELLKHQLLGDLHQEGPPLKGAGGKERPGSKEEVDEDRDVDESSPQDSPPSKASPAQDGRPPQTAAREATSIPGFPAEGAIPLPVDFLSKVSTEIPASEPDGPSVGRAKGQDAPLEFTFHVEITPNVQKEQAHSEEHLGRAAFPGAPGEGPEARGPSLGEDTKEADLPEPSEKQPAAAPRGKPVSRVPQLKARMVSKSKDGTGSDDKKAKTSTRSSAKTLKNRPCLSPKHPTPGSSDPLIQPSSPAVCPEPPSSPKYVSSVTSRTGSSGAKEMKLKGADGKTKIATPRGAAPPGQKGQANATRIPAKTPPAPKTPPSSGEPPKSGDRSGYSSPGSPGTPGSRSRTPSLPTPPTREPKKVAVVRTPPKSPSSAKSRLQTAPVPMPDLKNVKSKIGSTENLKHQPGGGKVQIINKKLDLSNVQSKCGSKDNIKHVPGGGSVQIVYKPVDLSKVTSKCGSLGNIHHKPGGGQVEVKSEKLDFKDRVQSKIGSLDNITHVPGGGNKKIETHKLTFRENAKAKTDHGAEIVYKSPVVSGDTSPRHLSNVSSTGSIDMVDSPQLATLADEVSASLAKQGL

| SMILES | Potency |
| --- | --- |
| Cc1cccc(N/N=C/c2ccccc2O)c1 | inconclusive: 3.98 µM [activator, single point] |
| CC(C)(C)C(=O)N1CCN(c2ccc([N+](=O)[O-])cc2-n2cccc2)CC1 | inactive |
| Cc1nc2c(Cl)cccc2[nH]1 | inactive |
| O=C(c1cc2ccc3cccnc3c2[nH]1)N1CCN(c2cccc(C(F)(F)F)c2)CC1 | inactive |
| CCN1c2ccccc2-c2nc(SCC(=O)Nc3cccc(C(F)(F)F)c3)ncc2S1(=O)=O | active: 28.2 µM |
| COc1ccc2nc(S(=O)Cc3ncc(C)c(OC)c3C)[nH]c2c1 (stereo not drawn) | inconclusive: 31.6 µM [inhibitor, partial curve] and inconclusive: 28.2 µM [inhibitor, partial curve] |
| COc1cc(NC(=O)CSc2nc3ccccc3nc2Cc2ccccc2OC)cc(OC)c1 | inactive |
| C=CCOc1c(Cl)cc(CNc2ccc(N(C)C)cc2)cc1OC | inactive |
| COc1cc(OC)cc(C(=O)Nc2ccc3oc(-c4ccccc4C)nc3c2)c1 | inconclusive: 8.91 µM [inhibitor, partial curve] |
| COc1ccc(CN2CCNC(=O)C2CC(=O)NCCCn2cccn2)c(OC)c1 (stereo not drawn) | inactive |
| O=C(NCc1ccccc1)c1ccc(/C=N/O)nc1 | inactive |
| O=S(=O)(/N=C(\Sc1ccccc1)c1ccccc1)c1ccc(Cl)cc1 | inconclusive: 31.6 µM [inhibitor, partial curve, poor fit] |
| O=C(COc1ccc2ccccc2c1)Nc1cccc(C(=O)Nc2ccccc2C(=O)O)c1 | inactive |
| COC(=O)Cn1ncn2c(cc3oc(C)cc32)c1=O | inactive |
| O=C(Nc1ccc(S(=O)(=O)NCc2ccccc2)cc1)Nc1ccc2c(c1)OCO2 | inconclusive: 3.98 µM [activator, partial curve] |
| CC[C@H](CO)Nc1nc(Nc2cccc(Cl)c2)c2ncn(C(C)C)c2n1 | inconclusive: 15.8 µM [activator, single point] |
| O=C(COC(=O)c1cc(-c2ccccc2)nc2c(Cl)cccc12)c1ccc(F)cc1 | inconclusive: 17.8 µM [inhibitor, partial curve] |
| COc1cccc(-c2cc(C(=O)Nc3nc4ccccc4s3)c3ccccc3n2)c1 | inconclusive: 14.1 µM [inhibitor, partial curve] |
| COc1ccc(OC)c(NC(=O)C(=O)NNC(=O)c2cccs2)c1 | inconclusive: 8.91 µM [inhibitor, single point] |
| CCOC(=O)c1c(-c2ccc(C)cc2)csc1NC(=O)CCSc1nnc2ccccn12 | inconclusive: 39.8 µM [inhibitor, single point] |
| COc1ccc(C(=O)Oc2cc(/C=N/NS(=O)(=O)c3ccccc3)ccc2OC)cc1 | inconclusive: 17.8 µM [inhibitor, single point] |
| CCCOc1ccc(Br)cc1-c1cc(-c2ccc(Cl)cc2)[nH]c1-c1ccncc1 | inconclusive: 0.316 µM [activator, full curve, poor fit] |

| SMILES | Potency |
| --- | --- |
| Cc1cc2ccccc2n2c(SCC(=O)Nc3ccc(S(=O)(=O)N4CCCCC4)cc3)nnc12 | inconclusive: 12.6 µM [inhibitor, partial curve, poor fit] |
| COc1ccccc1CNC(=O)c1ccc2nc3[nH]c4ccccc4c3nc2c1 | inconclusive: 28.2 µM [inhibitor, single point] |
| COc1ccc2c(c1)C(=O)[C@H](OC(=O)N[C@H]1CCCc3ccccc31)[C@@H](c1ccc(OC)c(Br)c1)O2 | inactive |
| O=C(NCCc1nc2ccccc2[nH]1)/C(=C/c1ccco1)NC(=O)c1ccc(Br)cc1 | inactive |
| Cc1ccc(NC(=O)Cn2c(=O)c(CNc3ccccc3)cc3cc4c(cc32)OCCO4)cc1 | inconclusive: 1.41 µM [activator, single point] |
| COc1ccccc1N1C(=O)C(Cl)=C(Nc2ccccc2O)C1=O | active: 28.2 µM |
| O=C(Nc1ccc(N2CCCC2)c(Cl)c1)c1ccccc1[N+](=O)[O-] | inconclusive: 10 µM [activator, partial curve, poor fit] |
| COc1ccc(CCNC(=O)CN(c2ccc(OC)c(OC)c2)S(C)(=O)=O)cc1 | inactive |
| COc1ccc(C2SCCN2C(=S)Nc2ccc(F)cc2)cc1 (stereo not drawn) | inconclusive: 39.8 µM [inhibitor, single point] |
| CCOC(=O)c1c(CN2CCN(C)CC2)n(-c2ccccc2)c2cc(Br)c(O)cc12 | inconclusive: 39.8 µM [activator, single point] |
| Cc1ccc(-c2nn(CC(=O)Nc3cccc(C(F)(F)F)c3)c(=O)c3ccccc23)cc1 | inconclusive: 14.1 µM [inhibitor, partial curve] |
| Cc1ccc(CNC(=O)c2ccc3c(c2)N(Cc2cccc(C)c2)C(=O)CS3)cc1 | inactive |
| CCOC(=O)c1sc(NC(=O)c2cccc(S(=O)(=O)N3CCN(C)CC3)c2)cc1C | inconclusive: 39.8 µM [inhibitor, single point] |
| Cc1ccccc1OCCCc1c(C)n[nH]c1C | inconclusive: 15.8 µM [inhibitor, partial curve] |
| Cc1ccc(-c2nc3ccccc3[nH]2)cc1NC(=O)COc1cccc(C)c1C | inconclusive: 44.7 µM [inhibitor, partial curve, poor fit] |
| O=c1[nH]c(-c2ccccc2Cl)nc2c1sc(=S)n2-c1ccccc1 | inactive |
| Cc1ccc(-n2c(Cl)c(Cl)nc(Cl)c2=O)cc1 | inconclusive: 1.58 µM [inhibitor, partial curve, poor fit] |
| CC(C)CNc1oc(-c2ccco2)nc1C#N | inactive |
| COc1ccccc1Cn1c(CNS(=O)(=O)c2cccc([N+](=O)[O-])c2)nc2cccnc21 | inactive |
| Cc1ccccc1-n1c(SCC(=O)NCc2cccs2)nc2ccccc2c1=O | inconclusive: 3.16 µM [inhibitor, full curve, poor fit] |
| CCC(Sc1nc2ccccc2c2nc(CCc3c(C)n[nH]c3C)nn12)C(=O)Nc1ccccc1F (stereo not drawn) | inconclusive: 0.447 µM [inhibitor, full curve, poor fit] |
